Results taken from PubChem BioAssay AID686970 (National Center for Advancing Translational Sciences (NCATS), 2013).
Among all 360,000 compounds or so, about 6,000 (1.7%) were called active. Inconclusive results, whose numbers are uncertain, are shown with a selection of clear calls. Calls come from the whole dose curve; as a rule, active = well fitted cell-killing curve with a large enough effect; inconclusive = small, poorly fitted or top-dose-only effect, or effect the other way; inactive = flat fitted curve, though single readings scatter. No potency is given beside an inconclusive call; the fits are too rough.

Assay: qHTS for induction of synthetic lethality in tumor cells producing 2HG: qHTS for the HT-1080-NT fibrosarcoma cell line;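 note: NT is the 2HG producing partner of a matched IDH1 knockdown line; nearly all actives have a fitted effect of over 55% in size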;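 for activity, negative = less viability: 0% = DMSO-treated cells and -100% = media-only wells without cells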
Conditions: HT-1080-NT fibrosarcoma viability, CellTiter-Glo ATP luminescence, 48 h; activity, negative = less viability: at 46.1 µM (top of the series) unless noted
Procedure, shortened: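 Compounds were tested in concentration-response format on HT-1080-NT cells for 48 hours at 37 degrees C. Cell viability came from CellTiter-Glo luminescence; curves were classified by r2, response magnitude and activity.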
Potency is the fitted concentration of half-maximal effect; tags give direction and shape of the fitted curve.

Row | SMILES | Potency | activity, negative = less viability
1 | CCOc1ccc(CCNC(=O)Cc2ccc(NC3=NC4CS(=O)(=O)CC4S3)cc2)cc1OCC (configuration not stated) | inconclusive [rising, partial curve, poor fit] | –
2 | CC(=O)c1ccc(Cl)c(Cl)c1Cl | inconclusive [rising, full curve] | –
3 | COc1cc(CNc2ncnc3c2ncn3[C@H]2CN(Cc3ccc(-c4ccccc4)cc3)C[C@@H](CO)O2)cc(OC)c1OC | inconclusive [cytotoxic, full curve] | –
4 | OCCNc1ncnc2c1nnn2Cc1ccccc1Cl | – | inactive: -5.12%
5 | CCCc1ccc(OCC(=O)Nc2cc(S(=O)(=O)CC)ccc2O)cc1 | inconclusive [cytotoxic, single point] | –
6 | CC(C)C[C@H](NC(=O)c1[nH]cnc1C(=O)Nc1ccccc1)C(=O)OC(C)(C)C | inconclusive [cytotoxic, single point] | –
7 | C[C@H](CO)N1C[C@H](C)[C@@H](CN(C)CC2CCCCC2)Oc2c(NC(=O)CCC(F)(F)F)cccc2C1=O | inconclusive [cytotoxic, single point] | –
8 | O=C(Nc1ccccc1)c1cnc(-c2ccccc2)nc1-c1ccccc1 | inconclusive [cytotoxic, single point] | –
9 | Cc1ccc2nc(-c3ccc(Cl)cc3)c(Cc3cccc(Cl)c3)n2c1 | inconclusive [cytotoxic, single point] | –
10 | CCOC(=O)[C@@H]1[C@H]2COc3cc(OC)ccc3[C@H]2N2C(=O)N(c3ccc(Br)cc3)C(=O)[C@]12C | inconclusive [rising, partial curve] | –
11 | O=C(O)c1ccc(-c2ccc(OS(=O)(=O)c3ccccc3F)cc2)cc1 | – | inactive: -0.223%
12 | COc1ccc(-c2ccc(C3C(C#N)=C(N)Oc4n[nH]c(C)c43)o2)cc1 (configuration not stated) | inconclusive [cytotoxic, single point] | –
13 | CN(C(=O)C1CCC(=O)N(Cc2ccccc2F)C1)C1CCOCC1 (configuration not stated) | – | inactive: 15.5%
14 | O=C(COc1ccc2c3c(c(=O)oc2c1)CCCC3)NCc1ccccn1 | inconclusive [rising, partial curve] | –
15 | O=C(N/N=C\c1c(O)ccc2ccccc12)c1ccc(S(=O)(=O)N2CCCCC2)cc1 | inconclusive [cytotoxic, full curve] | –
16 | COc1cc(/C=N/N=C(/N)c2nonc2N)cc(Br)c1OCc1cccc(C)c1 | inconclusive [cytotoxic, single point] | –
17 | O=C(CCCN=C1NS(=O)(=O)c2ccccc21)OCC(=O)c1ccc(F)cc1 | – | inactive: 10.7%
18 | O=C(Nc1cccc(-c2csc(Nc3ccc(Cl)cc3)n2)c1)c1cccc(C(F)(F)F)c1 | inconclusive [cytotoxic, partial curve] | –
19 | CCc1nc(Sc2nnnn2-c2ccccc2)c2c3c(sc2n1)CCCC3 | – | inactive: 9.62%
20 | Cc1[nH]c2ccccc2c1/C=C/c1nc2ccccc2c(=O)[nH]1 | inconclusive [cytotoxic, single point] | –
21 | [O-]/C(=C(\C(=S)Nc1cccc2ccccc12)[n+]1ccccc1)c1ccc2c(c1)OCCO2 | – | inconclusive: -20.2% [cytotoxic]
22 | CCNc1sc(S(C)(=O)=O)nc1S(=O)(=O)c1ccc(Cl)cc1 | – | inactive: -8.1%
23 | Nc1ncnc2c1ncn2[C@H]1C[C@H](O)[C@@H](COP(=O)(O)O)O1 | inconclusive [rising, partial curve] | –

Row | SMILES | Potency | activity, negative = less viability
24 | CC(C)NCC(O)c1ccc(O)c(O)c1 (configuration not stated) | – | inconclusive: 31.5%
25 | COc1ccc(N2CCC(CNS(=O)(=O)c3cccc(C(F)(F)F)c3)C2)cc1 (configuration not stated) | – | inactive: -1.47%
26 | CCCCNC(=S)N1CCn2cccc2C1c1ccc(F)cc1 (configuration not stated) | inconclusive [cytotoxic, partial curve] | –
27 | Cc1ccccc1OCCCCCCN1CCNCC1 | inconclusive [cytotoxic, single point] | –
28 | O=C(NCCO)c1ccc(-c2ccc3nncn3c2)cc1 | inconclusive [rising, partial curve, poor fit] | –
29 | COc1ccc(/C=C/c2nc(-c3ccccc3)cc(=O)[nH]2)cc1 | inconclusive [cytotoxic, single point] | –
30 | O=C(NCCCN1CCOCC1)c1ccc2c(c1)N(Cc1c(F)cccc1Cl)C(=O)c1ccccc1S2 | – | inactive: -6.44%
31 | CCOC(=O)Cn1c(S(=O)(=O)Cc2ccc(F)cc2)nc(-c2ccccc2)c1-c1ccccc1 | inconclusive [cytotoxic, single point] | –
32 | CC(C)COc1ccc(/C(=N/O)c2ccccc2)cc1 | inconclusive [cytotoxic, single point] | –
33 | CC(C)(C)NC(=O)[C@@H]1C[C@@H]2CCCC[C@@H]2CN1C[C@@H](O)[C@H](Cc1ccccc1)NC(=O)[C@H](CC(N)=O)NC(=O)c1ccc2ccccc2n1 | active: 20.6 µM | –
34 | O=C1CC(SC(=Nc2ccccc2)Nc2ccccc2)C(=O)N1c1cccc(Cl)c1 (configuration not stated) | inconclusive [cytotoxic, partial curve] | –
35 | O=C(CSc1nc2c(sc3ccccc32)c(=O)n1CCCN1CCCC1)NCc1ccco1 | inconclusive [cytotoxic, partial curve] | –
36 | COc1ccc(/C=C/CN2CCC(CO)(Cc3ccccc3Cl)CC2)cc1 | active: 23.1 µM | –
37 | COc1ccc(CCNC(=O)COC(=O)CCC(=O)c2ccc(F)cc2)cc1OC | – | inactive: -4.94%
38 | CC(C)=CCC/C(C)=C/CNC(=O)C[C@H]1C[C@H](C(=O)N2CCOCC2)[C@@]2(C)c3[nH]c4cc(-c5ccco5)ccc4c3CCN2C1=O | inconclusive [cytotoxic, single point] | –
39 | COc1ccccc1N(CC(=O)N1CCCCCC1)S(=O)(=O)c1ccc(C)cc1 | – | inactive: -11.8%
40 | COc1ccc(/C(N)=N/OC(=O)CCCc2ccccc2)cc1OC | – | inactive: 5.36%
41 | CCN(CC)c1nc(-c2ccccc2)ncc1S(=O)(=O)c1ccc(C)cc1 | inconclusive [cytotoxic, single point] | –
42 | CC1(Cc2cccc(C#N)c2)C(=O)Nc2ccc(-c3cccc(C(F)(F)F)c3)cc21 (configuration not stated) | inconclusive [cytotoxic, single point] | –
43 | Cc1cc2c(=O)n(Cc3ccco3)c(SCC(=O)NCc3ccco3)nc2s1 | inconclusive [cytotoxic, single point] | –
44 | CCCCc1ccc(S(=O)(=O)NC2CCS(=O)(=O)C2)cc1 (configuration not stated) | inconclusive [cytotoxic, partial curve] | –
45 | CCNC(=O)C1(C)CCCN1C(=O)c1cc(OC)c(OC)c(OC)c1 (configuration not stated) | inconclusive [rising, single point] | –
46 | Cc1cnc(NC(=O)c2cc3c(C)nn(-c4ccccc4)c3s2)s1 | active: 11.2 µM | –

Row | SMILES | Potency | activity, negative = less viability
47 | CCOC(=O)c1cc(-c2ccccc2C)n(CC2CC(c3cccc([N+](=O)[O-])c3)=NO2)n1 (configuration not stated) | inconclusive [cytotoxic, single point] | –
48 | CC(C)OCCCN1CC(=O)N2[C@@H](Cc3c([nH]c4ccccc34)C2(C)C)C1=O | – | inactive: -1.52%
49 | O=C(CCl)Nc1cc(-c2ccccc2)nn1-c1ccccc1 | active: 5.01 µM | –
50 | Nc1ccccc1/C=N\N=C/c1ccccc1N | inconclusive [cytotoxic, partial curve, poor fit] | –
51 | CCN1CCCC1CNC(=O)c1ccc(Sc2ccccc2Cl)c([N+](=O)[O-])c1 (configuration not stated) | active: 25.9 µM | –
52 | COC(=O)[C@@]12C[C@@H](CC(=O)NCC3CCCCC3)C(=O)N(CCc3ccc(OC)c(OC)c3)C1=CCC(C)(C)C2 | inconclusive [cytotoxic, single point] | –
53 | CCOC(=O)c1cc(CC)sc1NC(=O)c1cc([N+](=O)[O-])ccc1N1CCOCC1 | – | inconclusive: -27.2% [cytotoxic]
54 | O=C(Nc1ccc(C(=O)O)cc1)/C(=C\C=C\c1ccccc1)NC(=O)c1ccc(Br)cc1 | inconclusive [cytotoxic, single point] | –
55 | COc1cccc(C(NC(C)=O)c2nc(-c3cccc(O)c3)cs2)c1 (configuration not stated) | inconclusive [cytotoxic, partial curve] | –
56 | O=c1[nH]nc(-c2ccc(F)cc2)cc1Cc1ccc(F)cc1 | – | inactive: 9.99%
57 | Cc1ccc(-c2cc(C(=O)NCc3ccco3)c3ccccc3n2)s1 | inconclusive [cytotoxic, single point] | –
58 | COc1ccc2[nH]cc(CCNC(=O)/C=C/[C@H]3O[C@@H](n4cnc5c(NC(=O)c6ccccc6)ncnc54)[C@H](O)[C@@H]3O)c2c1 | – | inactive: 24.5%
59 | N#CC1=C(N)Oc2cc(O)ccc2C1C1CCCCC1 (configuration not stated) | inconclusive [cytotoxic, single point] | –
60 | Cc1sc2ncnc(N3CCN(CCOc4ccc(Cl)cc4)CC3)c2c1C | inconclusive [cytotoxic, partial curve] | –
61 | C[C@@]12C(=O)N(c3ccccc3)C(=O)N1[C@@H]1c3ccccc3OC[C@@H]1[C@H]2c1ccccc1 | – | inactive: -13.9%
62 | Cc1cc(C(=O)NC2CC(C)(C)Cc3c2cnn3-c2ccccc2C)c(C)o1 (configuration not stated) | – | inactive: -7.93%
63 | CCOc1cc(C(=O)NN2CCOCC2)cc(OCC)c1OCC | – | inconclusive: 9.3%
64 | COc1ccc(-c2nc(Cn3c(SCc4ccc(C)cc4)nc4ccncc43)c(C)o2)cc1OC | inconclusive [cytotoxic, single point] | –
65 | CCOC(=O)CS(=O)(=O)c1ccc2ccccc2c1 | – | inactive: -6.52%
66 | COCc1nn2c(N)c(-c3ccccc3)cnc2c1-c1ccccc1 | – | inactive: 3.33%
67 | O=C(c1[nH]ncc1-c1ccc(Cl)cc1)C1CO1 (configuration not stated) | inconclusive [cytotoxic, single point] | –
